Experimental data reported in PubChem BioAssay AID1030 (National Center for Advancing Translational Sciences (NCATS), 2008).
Out of some 220,000 compounds screened, about 16,000 (7.3%) were called active. This list was built around the results that the source calls inconclusive (neither active nor inactive); the mix of calls is not that of the screen. The call rests on the fitted dose curve; in most records, active means well fitted inhibition curve with a large enough effect (not every such curve was filed as active); inconclusive means small, poorly fitted or top-dose-only effect, or another doubt; inactive means no such curve, though single readings can be large or run the other way. Where the call is inconclusive, the potency comes from a doubtful curve fit.

These compounds were tested against Aldehyde dehydrogenase 1A1 (Homo sapiens) (UniProt P00352) (assay: qHTS Assay for Inhibitors of Aldehyde Dehydrogenase 1 (ALDH1A1)). Settings: Purified ALDH1A1, NADH fluorescence, propionaldehyde substrate; series mostly up to 75.3 µM; activity, negative = inhibition: at the top concentration.
Chain of UniProt P00352 (P00352 whole entry, looked up): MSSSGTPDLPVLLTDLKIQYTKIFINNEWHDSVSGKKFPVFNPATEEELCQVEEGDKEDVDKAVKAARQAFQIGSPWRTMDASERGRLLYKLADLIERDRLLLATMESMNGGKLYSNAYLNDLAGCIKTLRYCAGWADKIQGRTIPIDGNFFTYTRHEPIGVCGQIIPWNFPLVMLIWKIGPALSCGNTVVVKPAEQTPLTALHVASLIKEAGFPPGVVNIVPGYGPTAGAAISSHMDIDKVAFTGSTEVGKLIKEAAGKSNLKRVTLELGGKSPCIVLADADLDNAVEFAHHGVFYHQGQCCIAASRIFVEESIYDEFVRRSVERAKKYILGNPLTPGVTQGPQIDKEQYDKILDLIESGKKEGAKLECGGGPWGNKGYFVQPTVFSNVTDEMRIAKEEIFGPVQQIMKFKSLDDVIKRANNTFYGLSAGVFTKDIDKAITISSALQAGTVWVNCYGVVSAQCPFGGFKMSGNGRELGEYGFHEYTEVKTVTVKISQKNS
Potency means the concentration at half of the fitted maximal effect; tags describe the fitted curve by direction and shape.
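Wherever activity, negative = inhibition is given: plate controls were no enzyme wells and a reference inhibitor.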

Potency, active:
CC(C)c1ccc(NC(=O)C2CC(=O)N=C(N)S2)cc1 (stereo not given) 17.8 µM
CCOC(=O)c1c(/N=C/C2C(=O)CCCC2=O)sc2c1CCCC2 15.8 µM
COc1ccccc1N1CCN(CC(=O)Nc2cc(F)ccc2C)CC1 17.8 µM
CCCN(CCC)C(=O)CSc1nc2n[nH]c(C)c2c(=N)n1-c1ccc(OCC)cc1 3.16 µM
O=C(/C=C/c1ccccc1)NC(NC(=S)Nc1cc(Cl)ccc1Cl)C(Cl)(Cl)Cl (stereo not given) 22.4 µM
O=C(Nc1cccc2c1CCCC2)C1CCN(c2nnnn2-c2ccccc2)CC1 8.91 µM
N#C/C(=C(\O)C(F)(F)F)c1nnc2n1CCCCC2 4.47 µM
Cc1ccc(NC2SC(=O)N(Cc3cccc(C(=O)O)c3)C2=O)cc1 (stereo not given) 25.1 µM

Potency, inconclusive:
O=C(O/N=C(\c1ccccc1)c1ccncc1)c1ccccc1Cl 44.7 µM [inhibitor, single point]
O=C(O)c1ccc2c(c1Sc1ccccc1)C(=O)c1ccccc1C2=O 37.7 µM [inhibitor, single point]
Cc1ccc(CSc2nccc(-c3c(C)nc4ccccn34)n2)cc1 35.5 µM [inhibitor, single point]
COC(=O)c1cc(-c2ccc(NC(C)=O)cc2)nc2ccccc12 35.5 µM [inhibitor, single point]
O=C(c1cc(Sc2cccc(Cl)c2)nc2ccccc12)N1CCN(c2ccccn2)CC1 35.5 µM [inhibitor, single point]
CN(c1ccccc1)c1ccc(/C=C(\C#N)c2nnc3n2CCCCC3)cc1[N+](=O)[O-] 2.82 µM [inhibitor, partial curve]
CCN(CC)c1ccc2cc(C(N)=O)c(=O)oc2c1 35.5 µM [inhibitor, single point]
Cc1ccc(S(=O)(=O)N2CCCN(S(=O)(=O)c3ccc(C)cc3)CC2)cc1 10 µM [inhibitor, partial curve, poor fit]
Cc1cccc(S(=O)(=O)C(C#N)c2nc3ccccc3nc2N2CC(C)OC(C)C2)c1 (stereo not given) 10 µM [inhibitor, partial curve]
CN(C)C(=O)c1ccc(-c2nnc(NCc3ccccc3)c3ccccc23)cc1 22.4 µM [inhibitor, single point]
CCN(CC)C(=O)C(=O)c1cn(CC(=O)NCc2ccc3c(c2)OCO3)c2ccccc12 20 µM [inhibitor, partial curve]
Cc1ccc(N2CC(C(=O)N3CCCc4ccccc43)CC2=O)cc1 (stereo not given) 14.1 µM [inhibitor, partial curve]
O=C(Nc1nc(-c2ccc(S(=O)(=O)N3CCCCCC3)cc2)cs1)c1ccccc1 28.2 µM [inhibitor, single point]
O=C(NC(=S)Nc1cccc(Cl)c1N1CCCCC1)c1ccco1 39.8 µM [inhibitor, single point]
O=C(c1cn(-c2ccccc2)nc1-c1cccs1)N1CCN(c2ccccn2)CC1 39.8 µM [inhibitor, partial curve]
O=C(NCCc1ccccc1)C1CCN(S(=O)(=O)c2cccnc2)CC1 28.2 µM [inhibitor, single point]
CCC1(C)Cc2nc3[nH]c(=S)n(-c4ccc(C)cc4)c(=O)c3cc2CO1 (stereo not given) 0.141 µM [inhibitor, full curve]
Cc1ncc([N+](=O)[O-])n1CCOC(=O)c1cc(Cl)cc(Cl)c1N 39.8 µM [inhibitor, single point]
Cc1cccc(N(C)S(=O)(=O)c2ccc3[nH]cc(C(=O)N4CCOCC4)c(=O)c3c2)c1 39.8 µM [inhibitor, single point]
O=C(O)c1ccc(N2C(=O)/C(=C/c3ccc(-c4ccc([N+](=O)[O-])cc4)o3)C=C2c2ccccc2)cc1 15.8 µM [inhibitor, single point]
CCOC(=O)c1[nH]c(C)c(/C(O)=C2\C(=O)C(=O)N(CCCN3CCOCC3)C2c2cccnc2)c1C (stereo not given) 39.8 µM [inhibitor, single point]
COc1ccc(-c2cc3nc4ccccc4n3c(N)c2C#N)cc1 28.2 µM [inhibitor, partial curve]
c1ccc2c(C3=NNC(=NC4CC4)SC3)c[nH]c2c1 39.8 µM [inhibitor, single point]
O=c1oc(-c2cccc(Cl)c2)nc2c1cnn2-c1ccccc1 25.1 µM [inhibitor, partial curve]
COc1cccc(OC)c1C(=O)Nn1c(C2CCC2)nc2ccccc2c1=O 22.4 µM [inhibitor, partial curve]
CCNc1ncc2nc(-c3cn(C)c4ccccc34)c(=O)n(Cc3cccs3)c2n1 31.6 µM [inhibitor, single point]
Cc1cc(C)c2nc(-c3ccccn3)cc(C(=O)n3cccn3)c2c1 39.8 µM [inhibitor, single point]
CCCn1nnc(NC(=O)c2cccc(Cl)c2)n1 39.8 µM [inhibitor, partial curve, poor fit]
CCOC(=O)CSc1nc2c(sc(=S)n2-c2ccc(OCC)cc2)c(=O)[nH]1 39.8 µM [inhibitor, single point]
Cc1ccc(-n2nnnc2CSc2nnc(-c3ccc(O)cc3)o2)cc1 39.8 µM [inhibitor, single point]
CCC(=O)Nc1ccc(-c2cc3ccccc3oc2=O)cc1 25.1 µM [inhibitor, single point]
Cc1cc(C)c(C(=O)CSc2nc3ccccc3c(=O)[nH]2)cc1C 39.8 µM [inhibitor, single point]
Cc1ccc(-c2cc(C(=O)N/N=C/c3c[nH]c4ccccc34)[nH]n2)cc1 39.8 µM [inhibitor, single point]
Oc1c(C(c2ccccc2Cl)N2CCCC2)ccc2cccnc12 (stereo not given) 28.2 µM [inhibitor, single point]
COc1ccc(CN(CC(=O)NCC2CCCO2)C(=O)CNS(=O)(=O)c2ccc(C)cc2)cc1 (stereo not given) 31.6 µM [inhibitor, single point]
N#Cc1cnn2ccc(-c3ccc4c(c3)CCC4)nc12 25.1 µM [inhibitor, partial curve]
CNC(=S)NNC(=O)c1sc2cc(C(F)(F)F)cnc2c1-c1cccnc1 44.7 µM [inhibitor, single point]
O=C(CSc1nnnn1-c1ccccc1)NC(=O)NCc1ccco1 22.4 µM [inhibitor, partial curve]
O=C(NCc1ccccc1)C(c1cccs1)N(C(=O)c1csnn1)C1CC1 (stereo not given) 44.7 µM [inhibitor, single point]
O=c1c2ccccc2c(=O)n(Cc2ccccc2)n1Cc1ccccc1 39.8 µM [inhibitor, single point]
COc1ccc(N2CCN(CC(O)COc3ccc4c(c3)CCC4)CC2)cc1 (stereo not given) 35.5 µM [inhibitor, single point]
CCCC[n+]1ccn(C2=C([O-])c3ccccc3C(=O)/C2=N\S(=O)(=O)c2ccccc2)c1 14.1 µM [inhibitor, partial curve]

activity, negative = inhibition, inactive:
COC(=O)c1ccc(C(NC(=O)OCc2ccccc2)/C(F)=C/[C@@H](C)C(=O)NCc2nc3ccccc3s2)cc1 (stereo not given in full) 4.81%
CCCCn1c(SCC(=O)N2CCOCC2)nnc1-c1ccoc1C -5.27%
Cc1ccc(SCC(=O)Nc2ccc(N3CCN(C)CC3)c(F)c2)c(C)c1 -7.85%
Cc1nc2ccccc2n1CCc1nc2c3ccccc3nc(=S)n2[nH]1 7.28%
N#CCc1nnc2n1-c1ccccc1CCC2 -2.4%
Cc1ccccc1NC(=O)N1CCN(C(=O)c2ccco2)CC1 6.89%
Nn1cc(Br)c(=O)[nH]c1=O 2.62%
Cc1ccc(-n2c(Cc3ccccc3)n[nH]c2=S)c(C)c1 4.82%
CCCCc1nc2c(c3c1C[C@H](C)OC3)CN(C(=O)Cc1cccs1)CC2 2.91% [at 13.5 µM]
COc1ccc(C2(C)NC(=O)N(CC(=O)Nc3ccc(S(=O)(=O)N4CCCC4)cc3)C2=O)cc1 (stereo not given) -10.1%
O=C(COC(=O)C1CCN(S(=O)(=O)c2ccc3c(c2)OCCO3)CC1)Nc1cc(C(F)(F)F)ccc1Cl 5.51%
COc1ccccc1-c1nc2cc3ccccc3cc2nc1-c1ccccc1 -4.65%
Cc1ccc(-c2nnc(-c3cccc(Br)c3)o2)cc1 11.5%
Cc1nc(S/C(=C/c2ccc(-c3cccc(Cl)c3)o2)C(=O)O)n[nH]1 7.03%
CCOCCOC(=O)c1[nH]c2c(c1C)C(=O)CC(c1cccs1)C2 (stereo not given) 4.47%
CCOc1ccc(CCNC(=O)CN2CCN(Cc3ccccc3C)C2=O)cc1OCC -7.72%
CCCNS(=O)(=O)c1ccc(OCC(=O)N2CCN(c3ccccc3)CC2)cc1 3.5%
Cc1ccc2c(c1)nnn2C1CCN(CC(=O)NNC(=O)c2ccco2)CC1 -0.291%
CCN(CC(=O)NC(C)C)C(=O)Cc1ccc(C)c(C)c1 6.12%
Cc1ccccc1NC(=O)Cc1cn(C)c2ccccc12 9.27%
